Here are results for 13 molecules from patent publication US20200347135A1 (NANJING LEGEND BIOTECH, published 2020).

Experiment [1] concerns the target T1, human PD-1-His antigen (human, UniProt Q15116 fragment, limits assumed).
T1 construct: also called Antigen PD-1-His protein; not shown: His tag
The experiment can be described thus: SPR (Biacore T200), HCAb captured through Fc, human PD-1-His as analyte.

The target in experiment [2] is T1, human PD-1-His antigen. The experiment can be described thus: SPR (Biacore T200), HCAb captured through Fc, PD-1-His as analyte. (In general: In SPR one partner is held on a chip, and binding of the other changes the refractive index at the surface.)
T1 sequence (Q15116 25-170 limits assumed): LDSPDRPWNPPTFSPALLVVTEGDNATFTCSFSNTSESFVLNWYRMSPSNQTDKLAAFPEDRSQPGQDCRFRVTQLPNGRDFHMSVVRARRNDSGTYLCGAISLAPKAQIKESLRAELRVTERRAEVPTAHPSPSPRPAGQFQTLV
Experiment [3] addresses T2, human PD-1 expressed on cells (human, UniProt Q15116 25-288).
T2 construct: also called PD-1 expressed on CHO cells; CHO cells expressing human PD-1
The experiment is described as follows: flow cytometry (FACS) on CHO cells expressing PD-1.

Where a chain is given by its changes, count along the chain named. In names and notes the source's numbering stands.

B1: AS15899_HCAb (Fc fusion)
heavy: QVQLVESGGGSVQAGGSLRLSCAASGYTAGSLCMGWFRQAPGKEREGVAAIYTGGGSTYYADSVKGRFTISQDNAKNTVYLQMNSLKPEDTAQYYCGAGSREDYCDRGYIYDHWGQGTQVTVSS[human IgG4 Fc with S228P (EU numbers) skipped]
notes: sdAb fused to human IgG4 Fc (S228P) through the hIgG4 hinge; made in CHO cells
On to B1, for which the binding result with human PD-1-His antigen [1] is “binds”.

B2: AS15193VH18_HCAb (Fc fusion)
heavy: EVQLVESGGGLVQPGGSLRLSCAVSGNIYNRNFMGWFRQAPGKGREGVSAIYTGTSRTYYADSVKGRFTISRDNAKNTVYLQMNSLRPEDTAVYYCAADLRDGFWDTGVWNTWGQGTLVTVSS[human IgG4 Fc with S228P (EU numbers) skipped]
notes: humanized sdAb fused to human IgG4 Fc (S228P) through the hIgG4 hinge; made in CHO cells
For the molecule B2, the binding result (in the experiment with human PD-1-His antigen [2]; in experiment [3]) was “binds” each time.

B3: AS15193VH8M1_HCAb (Fc fusion)
heavy: B2 heavy with R45L, A75S, P88A, D102E
notes: as for B2
With B3, the binding result (with human PD-1-His antigen [2]; in experiment [3]) was “binds” in each case.

B4: AS15193VH8_HCAb (Fc fusion)
heavy: B2 heavy with R45L, A75S, P88A
notes: as for B2
As for B4, the binding result (with human PD-1-His antigen [2]; in experiment [3]) was “binds” throughout.

B5: AS15193_HCAb (Fc fusion)
heavy: QIQLVESGGGSAQAGGSLRLSCVVSGNIYNRNFMGWFRQAPGKVREGVAAIYTGTSRTYYADSVKGRFTISQDNAKNTVYLQMNSLKPEDTAMYYCAADLRDGFWDTGVWNTWGQGTQVTVSS[human IgG4 Fc with S228P (EU numbers) skipped]
notes: sdAb fused to human IgG4 Fc (S228P) through the hIgG4 hinge; made in CHO cells; also called parent HCAb; parental HCAb
For the molecule B5, the binding result (in the experiment with human PD-1-His antigen [1]; in experiment [3]) was “binds” throughout.

B6: AS15193VH18M1_HCAb (Fc fusion)
heavy: B2 heavy with D102E
notes: as for B2
As for B6, the binding result (with human PD-1-His antigen [2]; in experiment [3]) was “binds” in each case.

B7: AS15156_HCAb (Fc fusion)
heavy: B5 heavy with I2V, V23A, N27Y, A40V, S56E, A97V, F104T
notes: as for B1
In the case of B7, the binding result with human PD-1-His antigen [1] is reported as “binds”.

B8: AS06962_HCAb (Fc fusion)
heavy: QVHLVDSGGGLVQPGGSLRLSCAASGSITSRNTMGWYRQVPGKQRELVALIATFVTHYADSVKGRFTISRDNARKMVFLEMNSLQPEDTGAYYCYVDVSPYWGRGTQVTVSS[human IgG4 Fc with S228P (EU numbers) skipped]
notes: as for B1
As for B8, the binding result with human PD-1-His antigen [1] is listed as “binds”.

B9: AS15152_HCAb (Fc fusion)
heavy: QMQLVESGGGSVQAGGSLRLSCAVSGYIYNRNFMGWFRQAPGKEREGVAAIYTGGPYTYYTDSVQGRFTISQDNTKNTVYLQMNSLKPEDTAMYYCVSDLSDGTWDQGRWNYWGQGTQVTVSS[human IgG4 Fc with S228P (EU numbers) skipped]
notes: as for B1
For the molecule B9, the binding result with human PD-1-His antigen [1] is given as “binds”.

B10: AS25170_HCAb (Fc fusion)
heavy: QVKLVESGGGLVQSGGSLRLSCAVSGSGYSYSRGCFAWFQQRPGKEREGVAIINMDGHTMYSDLAQGRFIISQDKAKNTLYLQMNSLKPDDTAMYYCAYDRDQCYVLRDRLRLPDTFNDWGQGTQVTVSS[human IgG4 Fc with S228P (EU numbers) skipped]
notes: as for B1
Take B10: the binding result in the experiment with human PD-1-His antigen [1] is on record as “binds”.

B11: AS15881_HCAb (Fc fusion)
heavy: QVQLVESGGGSVQAGGSLRLSCAASGFTDSSYCGAWFRQVPGKEREGVAIIDRYGGTMYKDSVKGRFTISKDTAKNILYLQMNSLKLEDTAMYYCAAAEYRGSSCDAESGYWGQGTQVTVSS[human IgG4 Fc with S228P (EU numbers) skipped]
notes: as for B1
Regarding B11, in the experiment with human PD-1-His antigen [1], the binding result is “binds”.

B12: AS15883_HCAb (Fc fusion)
heavy: B11 heavy with Q3H, V5M, R19T, G26V, S31N, G34M, E99G, E108D
notes: as for B1
As for B12, the binding result with human PD-1-His antigen [1] was “binds”.

B13: AS15892_HCAb (Fc fusion)
heavy: B11 heavy with V2I
notes: as for B1
With B13, the binding result with human PD-1-His antigen [1] is on record as “binds”.
